# Measurements published in the supplement of paper PMC9046079.
# Counter-ions that a name gives are not always drawn. ± gives the standard deviation of the averaged measurements. The list shows a part of the results.
# Key:
# [1] = tested on: murine small intestinal organoids (ENR+CD Paneth differentiation); assay: cellular ATP (CellTiter-Glo 3D) relative to plate median (log10 fold change); higher = more viable cells; conditions: 6 d
# [2] = tested on: murine small intestinal organoids (ENR+CD Paneth differentiation); assay: carbachol-stimulated secreted lysozyme activity relative to plate median (log10 fold change); higher = more Paneth cell lysozyme secretion; conditions: 6 d, carbachol 10 µM
# [3] = tested on: murine small intestinal organoids (ENR+CD Paneth differentiation); assay: basal (non-stimulated) secreted lysozyme activity relative to plate median (log10 fold change); higher = more Paneth cell lysozyme secretion; conditions: 6 d
# 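For basal (non-stimulated) secreted lysozyme activity relative to plate median in this document: ISC-enriched organoid precursors grown as 2.5D pseudo-monolayer on Matrigel, compound given on day 0 and day 3, plate values LOESS-normalized before median fold change, three murine donors.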
# 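For cellular ATP (CellTiter-Glo 3D) relative to plate median in this document: 2.5D pseudo-monolayer culture of ISC-enriched organoids partly embedded atop Matrigel, compound added on day 0 and again on day 3, per-plate LOESS correction before median fold change.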
SMILES,cellular ATP (log10) ([1]; 0.08 µM),cellular ATP (log10) ([1]; 0.4 µM),cellular ATP (log10) ([1]; 2 µM),cellular ATP (log10) ([1]; 10 µM),carbachol-stimulated secreted lysozyme activity (log10) ([2]; 0.08 µM),carbachol-stimulated secreted lysozyme activity (log10) ([2]; 0.4 µM),carbachol-stimulated secreted lysozyme activity (log10) ([2]; 2 µM),carbachol-stimulated secreted lysozyme activity (log10) ([2]; 10 µM),basal (log10) ([3]; 0.08 µM),basal (log10) ([3]; 0.4 µM),basal (log10) ([3]; 2 µM),basal (log10) ([3]; 10 µM)
NC(=O)Nc1cc(-c2cccc(F)c2)sc1C(=O)N[C@H]1CCCNC1,0.0542 ± 0.35,-0.384 ± 0.17,-0.804 ± 0.43,-1.36 ± 0.5,-0.0306 ± 0.069,-0.2931 ± 0.0009,-0.4357 ± 0.0027,-0.425 ± 0.013,0.00964 ± 0.072,-0.159 ± 0.091,-0.211 ± 0.11,-0.22 ± 0.094
C[C@@H](Oc1cc(-n2cnc3ccc(CN4CCN(C)CC4)cc32)sc1C(N)=O)c1ccccc1C(F)(F)F,0.16 ± 0.092,-0.154 ± 0.041,-0.628 ± 0.19,-0.621 ± 0.11,0.084 ± 0.061,-0.105 ± 0.1,-0.427 ± 0.029,-0.477 ± 0.024,0.0784 ± 0.083,-0.0958 ± 0.051,-0.246 ± 0.094,-0.287 ± 0.065
CN(C)C(=O)c1ccc(S(=O)(=O)c2ccc(NC(=O)C(C)(O)C(F)(F)F)c(Cl)c2)cc1 (centres undefined),-0.334 ± 0.08,-0.158 ± 0.17,-0.255 ± 0.14,-0.35 ± 0.067,0.0653 ± 0.055,-0.0874 ± 0.046,-0.241 ± 0.2,-0.137 ± 0.12,0.087 ± 0.04,-0.0281 ± 0.082,-0.0178 ± 0.1,-0.0507 ± 0.13
CCCN[C@H]1CCc2nc(N)sc2C1 [Pramipexole],0.115 ± 0.17,0.135 ± 0.21,0.0673 ± 0.11,0.194 ± 0.23,-0.00162 ± 0.012,0.147 ± 0.23,0.157 ± 0.24,0.074 ± 0.03,0.0357 ± 0.11,0.0407 ± 0.028,0.0106 ± 0.067,0.116 ± 0.13
CC(C)(C)c1cc(C(C)(C)C)c(NC(=O)c2c[nH]c3ccccc3c2=O)cc1O [Ivacaftor (VX-770)],0.234 ± 0.38,0.145 ± 0.36,-0.148 ± 0.29,-0.47 ± 0.19,0.0733 ± 0.052,0.17 ± 0.087,0.0173 ± 0.015,-0.314 ± 0.033,0.0992 ± 0.047,0.127 ± 0.097,0.0823 ± 0.083,-0.142 ± 0.061
CC(C)(C)NC(=O)[C@H]1CC[C@H]2[C@@H]3CC[C@H]4NC(=O)C=C[C@]4(C)[C@H]3CC[C@]12C [Finasteride],0.151 ± 0.15,-0.0384 ± 0.28,0.073 ± 0.25,-0.0405 ± 0.29,0.188 ± 0.073,0.167 ± 0.12,0.127 ± 0.05,-0.0231 ± 0.1,0.205 ± 0.021,0.213 ± 0.15,0.142 ± 0.043,0.0675 ± 0.11
O=C(O)CCc1ccc(NCc2cccc(Oc3ccccc3)c2)cc1,0.0633 ± 0.33,0.174 ± 0.29,-0.00113 ± 0.27,-0.0588 ± 0.28,0.127 ± 0.1,0.11 ± 0.13,0.0556 ± 0.11,-0.00112 ± 0.22,0.0747 ± 0.081,0.0194 ± 0.1,-0.0105 ± 0.11,-0.0402 ± 0.047
CCCCc1nc(Cl)c(CO)n1Cc1ccc(-c2ccccc2-c2nnn[nH]2)cc1 [Losartan Potassium (DuP 753)],-0.152 ± 0.29,-0.175 ± 0.41,-0.0806 ± 0.1,-0.137 ± 0.18,0.0238 ± 0.061,0.0478 ± 0.019,-0.0728 ± 0.009,-0.0202 ± 0.051,0.0515 ± 0.13,0.0378 ± 0.086,-0.0416 ± 0.061,0.062 ± 0.089
CC#CCn1c(N2CCC[C@@H](N)C2)nc2c1c(=O)n(Cc1nc(C)c3ccccc3n1)c(=O)n2C [Linagliptin],0.163 ± 0.38,0.209 ± 0.17,0.0228 ± 0.33,-0.0112 ± 0.28,0.0907 ± 0.059,-0.0346 ± 0.0029,-0.13 ± 0.008,0.0562 ± 0.033,0.208 ± 0.14,0.0549 ± 0.12,0.021 ± 0.12,0.0798 ± 0.057
N#CC[C@H](C1CCCC1)n1cc(-c2ncnc3[nH]ccc23)cn1,0.466 ± 0.18,0.254 ± 0.12,0.433 ± 0.18,0.423 ± 0.18,0.148 ± 0.033,0.0461 ± 0.08,0.105 ± 0.053,0.246 ± 0.21,0.151 ± 0.017,0.034 ± 0.047,0.135 ± 0.035,0.248 ± 0.19
CN(C)Cc1ccc(-c2nc3cccc4c3n2CCNC4=O)cc1,-0.0117 ± 0.41,-0.0693 ± 0.092,0.00488 ± 0.21,-0.0208 ± 0.34,0.149 ± 0.046,-0.023 ± 0.12,-0.111 ± 0.22,-0.187 ± 0.19,0.152 ± 0.084,0.0359 ± 0.06,0.0319 ± 0.061,-0.197 ± 0.086
CN1CCC[C@@H]1CCO[C@](C)(c1ccccc1)c1ccc(Cl)cc1 [Clemastine Fumarate],0.242 ± 0.26,0.0362 ± 0.19,0.0241 ± 0.094,-0.424 ± 0.34,0.0311 ± 0.1,-0.106 ± 0.051,-0.0718 ± 0.063,0.023 ± 0.2,0.0241 ± 0.11,-0.0261 ± 0.051,-0.0143 ± 0.035,-0.0614 ± 0.048
Cc1[nH]c(/C=C2\C(=O)Nc3ccc(S(=O)(=O)N(C)c4cccc(Cl)c4)cc32)c(C)c1C(=O)N1CCN(C)CC1,-0.294 ± 1.4,0.3 ± 0.12,0.114 ± 0.073,-0.113 ± 0.29,-0.12 ± 0.3,0.358 ± 0.4,0.0982 ± 0.13,-0.21 ± 0.29,-0.0218 ± 0.22,0.133 ± 0.058,0.0338 ± 0.075,-0.0988 ± 0.15
CNC(=O)c1cc(Oc2ccc(NC(=O)Nc3cc(C(C)(C)C)nn3-c3ccc4ncccc4c3)c(F)c2)ccn1 [DCC-2036 (Rebastinib)],0.216 ± 0.31,0.218 ± 0.19,-0.0381 ± 0.39,-0.322 ± 0.27,0.415 ± 0.062,0.204 ± 0.026,0.0792 ± 0.13,-0.283 ± 0.066,0.259 ± 0.065,0.128 ± 0.02,0.0731 ± 0.089,-0.209 ± 0.13
CC1(COc2ccc3c(c2)ncn3-c2ccc3cccc(N4CCC(N)CC4)c3n2)COC1,-0.0689 ± 0.22,-0.0245 ± 0.28,0.0532 ± 0.37,-0.338 ± 0.25,0.0352 ± 0.083,0.0284 ± 0.035,0.159 ± 0.069,-0.292 ± 0.25,0.121 ± 0.017,0.0506 ± 0.049,0.122 ± 0.024,-0.224 ± 0.15
NC(=O)c1cccc(-c2cc(Nc3ccc(OC(F)(F)F)cc3)ncn2)c1,0.157 ± 0.24,0.0896 ± 0.4,0.0736 ± 0.12,0.101 ± 0.22,0.111 ± 0.072,-0.116 ± 0.26,-0.00525 ± 0.037,-0.0498 ± 0.06,0.159 ± 0.15,-0.0237 ± 0.18,0.0117 ± 0.068,-0.0329 ± 0.035
CCCc1nc2c(C)cc(-c3nc4ccccc4n3C)cc2n1Cc1ccc(-c2ccccc2C(=O)O)cc1 [Telmisartan],0.141 ± 0.17,0.303 ± 0.24,0.3 ± 0.36,0.405 ± 0.31,0.0475 ± 0.25,0.126 ± 0.069,0.156 ± 0.033,0.104 ± 0.062,0.084 ± 0.13,0.126 ± 0.087,0.0829 ± 0.019,0.0875 ± 0.13
